Laboratory results published in PubChem BioAssay AID1508623 (National Center for Advancing Translational Sciences (NCATS), 2021).
Hit rate of the full screen: of about 48,000 compounds, about 450 (0.94%) were called active. Inconclusive results (about 19%) are left out. Calls come from the whole dose curve; as a rule, active = well fitted inhibition curve with a large enough effect; inconclusive = small, poorly fitted or top-dose-only effect; inactive = no such curve, though single readings can be large or run the other way. This is one part of the list.

test: Primary qHTS for Identification of Small Molecule Inhibitors of Huntingtin Promoter Activity; conditions: HEK293 HTT promoter firefly luciferase reporter (activity 0% = vehicle and -100% = no light), 24 h; series mostly up to 57.5 µM; activity change, negative = inhibition: at the top concentration; note: nearly all actives have a fitted effect of over 50% in size
In short: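 Firefly luciferase signal from promoter-reporter HEK293 cells was scaled between vehicle (0%) and zero RLU (-100%). Compounds were tested at final concentrations of up to 57.5 uM over 24 h at 37 degrees C. PTC124 at 50 uM final served as control inhibitor.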

Activity change, negative = inhibition, inactive:
Cc1csc2nc(-c3cccc(NC(=O)c4c(F)cccc4F)c3)cn12 -4.41%
COc1cc(OC)cc(N2C(=O)CSC23C(=O)Nc2ccccc23)c1 (configuration not stated) -22.7%
COc1ccc(C(=O)OCc2cc(=O)n3nc(C4CC4)sc3n2)cc1OC -21.5%
CCCNC(=O)CSc1cn(CC(=O)N2CCCCCC2)c2ccccc12 -24.6%
O=C(CSc1nc2sc3c(c2c(=O)[nH]1)CCCC3)Nc1ccccc1F -22.3%
CC(C)Oc1ccc(CNS(=O)(=O)c2ccc(-c3cc(C(F)(F)F)on3)s2)cc1 6.07%
Cc1ccc(NC(=O)CCn2cnc3onc(-c4ccc(F)cc4)c3c2=O)c(Br)c1 5.02%
Cc1ccc2oc(C(=O)Nc3ccc(S(=O)(=O)Nc4nc(C)cc(C)n4)cc3)cc(=O)c2c1 -20.1%
Cc1ccc2nc(CN3CCN(S(=O)(=O)c4ccc(F)cc4)CC3)oc2c1 -34.9%
COc1ccc(CCNC(=O)CCn2c(=O)c3ccccc3n(Cc3ccccc3C)c2=O)cc1OC -10.3%
COc1ccc(-c2nc3ccccc3o2)cc1NC(=O)c1ccc(-c2cccc(Cl)c2C)o1 4.86%
Cc1c(-c2nc(-c3ccc4c(c3)OCO4)no2)nnn1-c1cccc(C(F)(F)F)c1 8.28%
Cc1ccc(Cl)cc1N1CCN(C(=O)COCc2cc(-c3ccc4c(c3)OCO4)on2)CC1 -22.9%
COc1cccc(NC(=O)C2CCN(c3nnc(-n4c(C)ccc4C)s3)CC2)c1 -8.38%
c1ccc(OCc2ccc(CCCN3CCOCC3)cc2)cc1 -7.83%
O=c1cc(O)c(Cl)c[nH]1
Cc1ccc2ccc(Cl)cc2n1 9.33%
CCN(CC)CCNC(=O)c1ccc2c(=O)n3nc(Nc4ccccc4)sc3nc2c1 -17.8%
CC1=C(C(=O)Nc2cccc(C(F)(F)F)c2)C2(CCN(C(C)C)CC2)OC1=O 3.12%
COc1ccc(CNC(=O)CS(=O)(=O)c2cccc3nsnc23)cc1 -8.15%
Cc1ccc(OC(=O)CSc2nnc(-c3cccs3)o2)c(C)c1 2.96%
CC1=C(C(=O)OC2CCCCCC2)C(c2ccc(Cl)cc2)CC(=O)N1 (configuration not stated) -30%
O=C(c1ccc([N+](=O)[O-])cc1)N1c2ncnn2C2(CCCCC2)[C@@H]2CCCC[C@@H]21 -7.59%
Cc1ccc2nc(-c3ccco3)c(Nc3ccc4c(c3)OCCO4)n2c1 13.4%
COc1ccc(Cn2c(CCC(=O)Nc3ccccc3OC)nc3cccnc32)cc1 -11.6%
CCc1c(C)nc2nc(-c3ccccc3)nn2c1NCc1ccc(C)cc1 -5.28%
CC(C)OCCCn1c(=O)c2ccccc2n2c(-c3ccccc3F)nnc12 -26.8%
Cc1oc2ccc(O)c(CN3CCCC(C)C3)c2c1C(=O)Nc1ccccc1 (configuration not stated) -9.74%
COc1ccc2c(c1)c(=O)c(C(=O)c1ccc(Cl)cc1)cn2CC(=O)Nc1ccc2c(c1)OCCO2 -5.51%
O=C1CC2(CCCC2)CC(=O)N1CCCCN1CCN(c2ncccn2)CC1 -4.52%
Cc1ccc2nc(-c3c[nH]c4ccccc34)c(Nc3ccc(F)cc3)n2c1 8.8%
Cc1ccc(CNC(=O)C(C)n2c(=O)cc(-c3ccccc3)c3c(C)nn(C)c32)cc1 (configuration not stated) -18.1%
O=C(CCS(=O)(=O)c1cccc2nonc12)Nc1ccc(F)cc1F -0.88%
Cc1oc(-c2ccccc2Cl)nc1CSc1nncn2c1cc1occc12 9.35%
COc1ccc(Br)cc1CNC(=O)Cn1ncn2nc(-c3cccs3)cc2c1=O 2.96%
Cc1ccc(-c2nnn3c2nc(NCc2ccc4c(c2)OCO4)c2ccccc23)cc1 -8.95%
COc1ccc2c(Sc3ccccc3)c(C(=O)NCc3cc(Br)ccc3OC)[nH]c2c1 -20.5%
CCCn1ccc2c(OCC(=O)Nc3ccc(OC)c(OC)c3)cccc2c1=O -15.8%
O=C(NOC[C@H](O)CO)c1ccc(F)c(F)c1Nc1ccc(I)cc1F 4.64%
COc1ccccc1CNC(=O)c1ccc(CSc2nc3ccncc3n2Cc2cccc(F)c2)cc1 -29.9%
Cc1ccc(OCC(=O)Nc2nc(-c3ccc(Br)cc3)ns2)cc1 -6.32%
CCOc1ccccc1CNc1nc2nc(C)c(CC(=O)OC)c(=O)n2[nH]1 -15.7%
Cc1cccc(-c2nc(C)c(CCNC(=O)C(=O)Nc3ccc(C)c(C)c3)s2)c1 -8.09%
CN/C(=C\[N+](=O)[O-])NCCSCc1csc(CN(C)C)n1 7.75%
O=C(CSc1nc(=O)[nH]c2c1CCC2)NCc1ccc(F)cc1 -12.9%
Cc1cc(C)c(/C=C2\C(=O)Nc3ccccc32)[nH]1 7.32%
Cc1ccc(-n2ncc3c(N4CCN(Cc5ccccc5)CC4)ncnc32)cc1 -14.8%
Cc1ccccc1NC(=O)CSc1ccc(-c2ccccn2)nn1 1.38%
COc1ccccc1-c1nn(CCC(=O)Nc2ccc(C)cc2)c2nc(C)cc(C)c12 -12.3%
CCN1CCN(CCCNC(=O)Cn2nc(C)n3c(cc4c(OC)cccc43)c2=O)CC1 0.732%
CC1=C(C(N)=O)C(c2ccc(C)cc2)n2nc(SCc3ccccc3)nc2N1 (configuration not stated) -12.3%
O=C(NCc1ccccc1Cl)C1=Cc2cc(Br)ccc2OC1 -12.2%
CCOC(=O)NNC(=O)C1CCC(C)CC1 (configuration not stated) 1.74%
CC(C)Oc1ccc(CNC(=O)c2cnc3sc(N4CCCC4)nn3c2=O)cc1 9.9%
Cc1oc2c(c1C(=O)NCc1ccccc1F)C1=NCCN1C=N2 -2.87%
O=C(NCC(c1ccc2c(c1)OCO2)N1CCN(c2ccccc2)CC1)C(=O)Nc1ccccc1F (configuration not stated) -20.4%
CC(=O)Nc1cccc(-c2nnc(SCC(=O)c3cc([N+](=O)[O-])ccc3Cl)o2)c1 -32.1%
CCN(CC)C(=O)Cn1ncc2c([nH]c3ccccc32)c1=O -0.847%
CCOC(=O)c1cnc2ccc(C(=O)OC)cc2c1Nc1ccc(OCc2ccccc2Cl)cc1 -16.3%
COc1ccc(C)cc1NC(=O)N(C(C)C)C1CCN(C(C)=O)CC1 6.49%
Cc1ccc(-c2nnc3ccccc3c2C(=O)Nc2ccc(F)cc2)cc1 -13.5%
O=C(O)c1cc(-c2ccccc2)nn1Cc1ccccc1 20.3%
Cc1ccc(N2CCN(c3nc4ccc(C(=O)c5ccccc5)cc4n4cnnc34)CC2)c(C)c1 -17.8%
Cc1ccn2c(Nc3ccccc3)c(-c3c[nH]c4ccccc34)nc2c1 54.4%
Cc1cc(C)cc(NC(=O)C(=O)NCCc2sc(-c3cccc(F)c3)nc2C)c1 -16.9%
CC(=O)Nc1ccc(NC(=O)c2ccc3c(c2)CCN3S(=O)(=O)c2ccc(C)cc2)cc1 -21.3%
Cc1noc(Cn2c(=O)c3ccccc3n(CC(=O)Nc3cc(Cl)ccc3C)c2=O)n1 -4.94%
CCOC(=O)c1[nH]c2ccccc2c1NC(=O)c1ccc(C)c(C)c1 9.87%
O=C(CSc1n[nH]c(-c2ccccc2)n1)N1CCN(c2ccc(F)cc2)CC1 -2.88%
Cc1ccc(-c2nnc(Nc3ccc(OCC(N)=O)cc3)c3ccccc23)cc1S(=O)(=O)NCC1CCCO1 (configuration not stated) -7.66%
O=C(O)C(S)C(S)C(=O)O (configuration not stated) -6.18%
Cc1ccc(-n2c(=O)c3c(cnn3C)n(CC(=O)Nc3cccc(Cl)c3)c2=O)cc1 -9.48%
CCOc1ccccc1NC(=O)CN1C(=O)CC(c2ccc(C)c(C)c2)=Nc2ccccc21 78.2%
CCn1nc(C(=O)O)c(=O)c2cc3c(cc21)OCO3 7.52%
CCc1ccccc1NC(=O)CCn1cccn1 -7.01%
Cc1ccc(CSc2nc3ccccc3c3nc(CCn4c(C)nc5ccccc54)nn23)cc1 5.25%
CCOc1ccc(NC(=O)c2ccc3c(=O)n4c(nc3c2)CCCCC4)cc1 -10.4%
Cc1cc(C)cc(NC(=O)C(C)N2Cc3ccccc3C2=O)c1 (configuration not stated) -13.9%
Cc1ccc(-c2nnc(SCc3ccccc3)o2)cc1 66.7%
CCCNC(=O)CN1C(=O)COc2ccc(S(=O)(=O)N3CCCCCC3)cc21 -3.01%
CCc1ccc(CNC(=O)CN2C(=O)C3CCCCN3c3ccc(C(=O)N4CCCC4)cc32)cc1 (configuration not stated) -14.9%
CC1CCN(S(=O)(=O)c2ccc3c(c2)N(C)C(=O)CC(=O)N3C)CC1 -11.4%
COc1ccccc1NC(=O)c1cc2c(-c3ccccc3)nn(-c3ccccc3)c2s1 -7.91%
CCc1ccccc1NC(=O)Cn1c(=O)n(C(C)C)c(=O)c2oc3ccccc3c21 -5.97%
COc1ccc(OCc2nc3ccccc3n2Cc2ccc(C(C)(C)C)cc2)cc1 8.14%
CCN(CC)C(=O)Cn1c(SCC(=O)Nc2ccc(F)cc2)nc2ccccc21 -17.8%
O=S1(=O)OC(c2ccc(O)cc2)(c2ccc(O)cc2)c2ccccc21 -5.25%
Cc1cc(=O)n2nc(N3CCC(C(=O)Nc4ccc(Br)c(C)c4)CC3)sc2n1 -14.2%
COCCNC(=O)c1ccc(Cn2c(SCC(N)=O)nc3ccccc3c2=O)cc1 -12.6%
CCOc1ccccc1C(=O)NCc1ccc2c(c1)CCN2C(=O)c1ccc(F)cc1 -21.2%
COc1cccc(OCCSc2nc3ccccc3n2CC(=O)N2CCOCC2)c1 -16%
COc1ccc2c(CNC3CCC(C)CC3)c(C(=O)O)n(Cc3ccc(F)cc3)c2c1 (configuration not stated) -18.5%
Cc1ccc(N(Cc2cccs2)C(=O)c2ccc(OC(C)C)cc2)cc1 -22.1%
CCOC(=O)c1ccccc1NC(=O)CSc1ccc(-c2sc(C)nc2C)nn1 -10.9%
COc1ccc(-c2noc(CN(C(=O)c3ccc(C)cc3C)C(C)C)n2)cc1 -22.3%
Cc1ccc(C(=O)NCCc2csc(-c3cccc(F)c3)n2)cc1C -15.6%
CCN(C(=O)c1c(C)oc2ncnc(N3CCCCC3)c12)c1cc(C)ccc1C -2.99%
COc1ccc(C2CC(=O)Nc3c2c(C)nn3-c2nncc(-c3ccccc3)n2)c(OC)c1OC (configuration not stated) -24.3%
COc1cc2nc(NCCc3cccc(C)c3)n3nc(-c4ccccc4)nc3c2cc1OC 4.26%
CCOC(=O)c1cccc(NC(=O)COc2ccc3c(C)cc(=O)oc3c2)c1 14.9%
CCOC(=O)c1cnc2c(ccc3ccccc32)c1Nc1ccccc1O 7.59%
Cc1cc(C)cc(NC(=O)NCc2noc3ccccc23)c1 -9.59%
